These results are taken from PubChem BioAssay AID1656 (Sanford-Burnham Center for Chemical Genomics, 2009).

The other results are listed elsewhere or left out. These are further read-outs of the screen, such as a control signal, another cell line or another target. No call is given for them. The list favours compounds with an active or inconclusive main result.

The experiment in a line: inhibitors of hepatocyte lipid droplet formation, primary screen, imaging, high-throughput imaging, BODIPY stain (AID 1656).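 Further: cells counted across two imaged fields per well.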 The note with it: AML12 mouse hepatocytes, oleate lipid droplets, measured here: cell count, cytotoxicity flag, at 6.5 µM. Put shortly: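 Technique: fluorescence imaging, 20x objective, two fields per well / Assay system: AML12 hepatocytes (mouse) / Measure: % inhibition of lipid droplet signal / Doses: 6.5 µM single-point dosing / Incubation: overnight exposure / Reagent: 100 µM oleic acid challenge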
On to `CN(C1=C(N2CCCCC2)C(=O)c2ccccc2C1=O)c1ccccc1`, for which the cell count is 735 cells. Under `COc1ccc(/C=N/N=C2\SCC(=O)N2c2c(C)n(C)n(-c3ccccc3)c2=O)cc1OC` stands 688 cells; under `CCOC(=O)C1CCN(C(=O)C2(NC(=O)Nc3ccccc3C)CCCCC2)CC1`, 800 cells; under `CC(=O)c1c(C)[nH]c(C(=O)Nc2nc(-c3ccc(-c4ccccc4)cc3)cs2)c1C`, 667 cells.

`CCCCCCn1c(N2CCN(c3ccccc3)CC2)nc2c1c(=O)[nH]c(=O)n2C` yielded a cell count of 742 cells. The compound `CS(=O)(=O)N(CC(=O)Nc1ccc2c(c1)OCO2)Cc1ccccc1` displayed a cell count of 705 cells. Turning to `CCOC(=O)c1c(C)[nH]c(C)c1S(=O)(=O)N1CCN(c2ccc([N+](=O)[O-])cc2)CC1`, the cell count was 744 cells. In turn, `O=C(Nc1ccc(Br)cc1)c1cccc(OC(=S)N2CCOCC2)c1` came in with a cell count of 823 cells.

For the compound `COc1ccccc1N1CCN(C(=O)CSc2nc3ccccc3nc2N2CCC(C)CC2)CC1`, the cell count amounted to 817 cells. Compound `CCOc1ccc(CCNC(=O)C2CCN(S(=O)(=O)N3CCCCC3)CC2)cc1OCC` yielded a cell count of 757 cells. Under `CSc1ccc(CN2CCN(C3CCCC3)C(CCO)C2)cc1` (stereo not drawn) stands 757 cells.

Regarding `COc1cccc(NC(=O)CN(Cc2ccccc2)S(C)(=O)=O)c1`, the cell count came out at 640 cells. In turn, `COc1ccc(C(C(=O)NC(C)(C)C)N(CCC(C)C)C(=O)CCC(=O)Nc2cc(C)on2)cc1` (stereo not drawn) gave a cell count of 800 cells.

The compound `CC(=O)c1ccc(N2CCCC2)c(F)c1` came in with a cell count of 838 cells. Take `COc1ccc(Cl)cc1NC(=O)CN(C)CC(=O)Nc1ccccc1N1CCOCC1`: the cell count is 271 cells. Under `C=CCOc1ccc2nc(NC(=O)OC)[nH]c2c1` stands 285 cells. In turn, `O=C(Cc1cccc2ccccc12)Nc1ccc(-c2cc3ccccc3oc2=O)cc1` displayed a cell count of 660 cells. `CCCc1cc(N2CCOCC2)n2nc(C)c(-c3ccccc3)c2n1` came in with a cell count of 803 cells. In the case of `COC(=O)[C@@H]1C[C@@]2(O)[C@H](O)[C@H](O)[C@H](O)C[C@H]2N1Cc1cc(F)ccc1F`, the cell count amounted to 661 cells. Consider `COc1ccc(C(=O)Nc2sc3c(c2C(=O)NCc2ccco2)CCCC3)cc1OC`, for which the cell count is 821 cells. In turn, `c1ccc(-c2csc(NNC3=NCCCCC3)n2)cc1` gave a cell count of 794 cells. `O=C1c2cccc3cccc(c23)N1Cc1ccc(F)cc1`: the cell count was 221 cells. `CCOc1ccc(CCNC(=O)c2cc3sccc3n2C)cc1OCC` displayed a cell count of 717 cells. Consider `CCOC(=O)c1cc(CC)sc1NC(=O)C1CC(=O)NN1Cc1ccccc1` (stereo not drawn), for which the cell count worked out at 696 cells. Consider `CCNC(=S)N1CCc2cc(OC)c(OC)cc2C1COc1ccccc1OC` (stereo not drawn), for which the cell count came to 684 cells. Regarding `O=C(Nc1cccc(S(=O)(=O)N2CCOCC2)c1)c1ccc(Cl)c([N+](=O)[O-])c1`, the cell count worked out at 732 cells. The compound `CCCn1nc2cc(C(=O)NCc3ccc(OC(F)(F)F)cc3)ccc2c1OCC` showed a cell count of 687 cells. For the compound `Cc1ccc2nc(=O)c(NNc3ccccc3)cnc2c1`, the cell count came to 774 cells.
